Measured values from article PMC11436953 (Nature Communications, 2024).

Molecular target: the molecule itself
Assay: thioflavin T fluorescence aggregation kinetics

B1: recombinant peptide Aβ42 (peptide)
chain: not shown
  binding result: binds
